Measured values: PubChem BioAssay AID485297 (National Center for Advancing Translational Sciences (NCATS), 2010)
Hit rate of the full screen: of about 320,000 compounds, about 9,100 (2.8%) were called active. Inconclusive results, whose numbers are uncertain, are shown with a selection of clear calls. Calls follow the shape of the dose curve; as a rule, active = well fitted activation curve with a large enough effect; inconclusive = small, poorly fitted or top-dose-only effect; inactive = no such curve, though single readings can be large or run the other way. No potency is given beside an inconclusive call; the fits are too rough.

experiment: qHTS Assay for Rab9 Promoter Activators; conditions: Huh7 Rab9 promoter-luciferase reporter, luminescence, 24 h; series mostly up to 9.22 µM; also: nearly all actives have a fitted effect of over 60% in size
How it was run: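 Luminescence read-out: Huh7 cells stably expressing Rab9-luciferase, treated 24 h with compound at 37 °C, then lysed with luciferase reagent for 10 min at ambient before reading.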
Potency is read from the fitted curve at half-maximal effect; tags tell the direction and shape of the fitted curve.

| SMILES | Potency |
| --- | --- |
| Cc1nccc2[nH]c(=O)c(C(=O)NC(C)CCc3ccccc3)cc12 (stereo not given) | inactive |
| Cc1ccc(NC(=O)CN2CCOCC2)c(Br)c1 | inactive |
| O=C(OCC(=O)N1CCN(C(=O)c2ccco2)CC1)c1ccccc1C(=O)c1ccc(Cl)cc1 | inactive |
| Cc1cc(C(=O)COc2ccccc2Cl)c(C)n1C1CC1 | inconclusive [activator, single point] |
| O=C(Nc1ccc(F)cc1)c1ccccc1 | inconclusive [activator, partial curve, poor fit] |
| CCOC(=O)N/N=C/c1cn(CCCOc2ccc(C)cc2)c2ccccc12 | inconclusive [activator, partial curve] |
| N/C(=N\OC(=O)c1cccs1)c1ccc(Cl)cc1 | inconclusive [activator, single point] |
| CCOC(=O)c1ccc2nc(NC(=O)C(C)C)sc2c1 | active: 3.55 µM |
| CC(=O)NCCC(=O)Nc1nc(-c2ccc3c(c2)OCCO3)cs1 | inconclusive [activator, single point] |
| Cc1cccnc1NC(=O)COc1ccc2oc3c(c2c1)CCCC3 | inactive |
| C/C(=N\O)c1ccc(N2C(=O)C3CC=C(Cl)CC3C2=O)cc1 (stereo not given) | inconclusive [activator, single point] |
| Clc1cccc(/C=N/N2CCN(Cc3ccccc3)CC2)c1 | inconclusive [activator, partial curve] |
| Cc1ccc(CC(=O)Nc2nc3ccccc3s2)cc1 | inconclusive [activator, partial curve] |
| Cc1ccc(-c2nnc(SCC(=O)N3CCCC3)o2)cc1 | inconclusive [activator, partial curve] |
| CC(=O)C(Cc1ccccc1)NC(=O)CN1c2cccc3cccc(c23)S1(=O)=O (stereo not given) | inactive |
| C=CCNC(=S)Nc1c(C(=O)OC)[nH]c2cc(OC)ccc12 | inconclusive [activator, single point] |
| Cc1cc(C)cc(NC(=O)C(=O)NCCCN2CCCC2=O)c1 | inconclusive [activator, single point] |
| N#Cc1c(N2CCOCC2)nsc1-c1ccc(C(F)(F)F)cc1 | inconclusive [activator, single point] |
| Cc1nc(SCc2ccc(OCCC(C)C)cc2)n[nH]1 | inconclusive [activator, partial curve] |
| COc1ccc(NC(=O)c2ccc3ccccc3c2)cc1 | active: 0.708 µM |
| COc1ccc(-c2ncc3ccccn23)cc1 | inconclusive [activator, single point] |
| Cc1ccc(CNC(=O)c2ccc(N3CCC4(CC3)CC(c3cccc(Br)c3)=NO4)c(NC(=O)c3c(Cl)cccc3Cl)c2)cc1 | inactive |
| O=C(NCc1ccc(F)cc1)Nc1cccc(Cl)c1 | inconclusive [activator, partial curve] |
| Cc1cc(C)cc(NC(=O)c2ccc(CSc3nnc(C)s3)cc2)c1 | inactive |
| COc1ccc(/C=N/NC(=O)c2cc(-c3ccc4c(c3)OCO4)n[nH]2)cc1OC | inactive |

| SMILES | Potency |
| --- | --- |
| CCS(=O)(=O)c1nc2ccccc2n1CC(=O)N1CCCCC1 | inconclusive [activator, partial curve] |
| COc1cccc(OCC(Cn2c(C)nc3ccccc32)OC(C)=O)c1 (stereo not given) | inactive |
| Cn1c2c(c(=O)n(C)c1=O)C(NC(=O)c1cccs1)(C(F)(F)F)C(=O)N2 (stereo not given) | inactive |
| COc1ccc(Nc2nc(N)nc(CSC(=S)N3CCCCC3C)n2)cc1 (stereo not given) | inactive |
| O=C(NC(NCC1CCCO1)C(Cl)(Cl)Cl)c1cccc2ccccc12 (stereo not given) | inconclusive [activator, single point] |
| O=C(COc1ccc(Cl)cc1)Nc1ncc([N+](=O)[O-])s1 | inconclusive [activator, partial curve] |
| CCSc1nnc(NC(=O)c2ccccn2)s1 | inconclusive [activator, partial curve, poor fit] |
| CC(C)C(=O)N1CCN(c2nc3ccc(Cl)cc3s2)CC1 | inconclusive [activator, partial curve] |
| Nc1nc(N)nc(-c2ccc(Cl)c(Cl)c2)n1 | inconclusive [activator, partial curve] |
| Cc1cc(C(=O)NCCc2ccc(Cl)cc2)c(C)o1 | inconclusive [activator, single point] |
| Cc1ccnc(NC(=O)c2ccc(Cl)s2)c1 | active: 1.58 µM |
| CSc1ccc(/C=N/N2CCN(c3ccccc3)CC2)cc1 | inconclusive [activator, partial curve] |
| COC(=O)c1ccc(COC(=O)c2ccc(SC)cc2OC)cc1 | inconclusive [activator, single point] |
| CCn1c(SCc2nc3ccccc3s2)nnc1-c1cccs1 | inconclusive [activator, single point] |
| CN(Cc1ccccc1)c1nc2c(c(=O)[nH]c(=O)n2C)n1C | inactive |
| COc1ccc(Cl)cc1NC(=O)c1ccco1 | inactive |
| Cc1c(/C=C/C(=O)c2ccc(O)cc2)cnn1C | inconclusive [activator, single point] |
| CC1CC1C(=O)OCC(=O)Nc1ccc(N=Nc2ccccc2)cc1 (stereo not given) | active: 1.78 µM |
| Cc1ccccc1NC(=S)N1CCN(c2ccccc2Cl)CC1 | inactive |
| O=C(Nc1cccs1)Nc1c(F)c(F)cc(F)c1F | inactive |
| O=C(Nc1ccc(CSc2ccccc2)cc1)c1ccco1 | active: 3.98 µM |
| Cn1cnnc1SCC(=O)c1c[nH]c2ccccc12 | inconclusive [activator, partial curve] |
| CCn1cc(Br)c(C(=O)Nc2cccc(SC)c2)n1 | inconclusive [activator, single point] |
| COc1ccc(-c2nnc(N(C)C(=O)c3cccnc3)s2)cc1 | inconclusive [activator, partial curve] |
| Cc1nc(-c2nc(-c3c(C(=O)NN)noc3C)cs2)cs1 | inconclusive [activator, single point] |

| SMILES | Potency |
| --- | --- |
| O=C(Nc1nc2c(s1)CCCC2)c1cccnc1 | inconclusive [activator, partial curve] |
| CCN(C(=S)Nc1ccc(C(C)=O)cc1)C1CCCCC1 | inconclusive [activator, single point] |
| COC(=O)C1=C(O)/C(=C/c2cccc(OC)c2O)N=C1C | inconclusive [activator, single point] |
| CN(CC(=O)NCc1ccccc1Cl)S(=O)(=O)c1ccc2c(c1)n(C)c(=O)c(=O)n2C | inactive |
| O=C(CSc1nc2ccccc2c(=O)n1NC(=O)Cc1ccccc1)NCCc1ccccc1 | inconclusive [activator, single point] |
| COc1cc(O)c(C(CC(=O)N2CCN(c3ccccc3)CC2)c2cc(OC)c(OC)c(OC)c2)c(OC)c1 (stereo not given) | inactive |
| CCn1c(=O)n(CC)c2cc(N3CCCC3)c(NC(=O)c3ccccc3F)cc21 | inactive |
| CN(C)c1ccc(-n2cc3c(=O)n(C)c(=O)n(C)c3c2)cc1 | inconclusive [activator, partial curve] |
| CC(=O)Nc1sc(C)c(C)c1C(=O)OCCOc1ccccc1 | inconclusive [activator, single point] |
| COc1ccc(N(CC(=O)Nc2ccc3c(c2)OCO3)S(=O)(=O)c2ccccc2)cc1OC | inactive |
| COc1ccc(-c2nnc(SC(C)C#N)o2)cc1 (stereo not given) | inconclusive [activator, partial curve] |
| COc1cc(C(=O)NNc2nc3cc4c(cc3s2)OCO4)cc(OC)c1OC | inconclusive [activator, single point] |
| Cc1cccc(NC(=O)Nc2ccc(F)cc2)n1 | inconclusive [activator, partial curve] |
| O=C(CSc1ncn[nH]1)Nc1ccc(OCc2ccccc2)cc1 | inconclusive [activator, partial curve] |
| CN(C)c1ccc(NC(=O)Nc2csc3ccccc23)cc1 | inconclusive [activator, partial curve] |
| O=C(NC1CCCCC1)c1n[nH]c2c1CCCCC2 | active: 0.0891 µM |
| O=C(Nc1ncccc1O)c1ccc(NS(=O)(=O)c2ccc3[nH]c(=O)[nH]c3c2)cc1 | inconclusive [activator, partial curve] |
| CC(=O)Nc1ccc(NC(=O)Nc2ccccc2)cc1 | inconclusive [activator, partial curve] |
| CC1CC(CC(=O)Nc2nc(-c3ccccc3)cs2)C(=O)O1 (stereo not given) | inconclusive [activator, single point] |
| C=CCn1c(SCC(=O)O)nnc1-c1ccc(C(C)(C)C)cc1 | inactive |
| CCN1CCN(c2cc(C)c3cc(NC(=S)N4CCCC(C)C4)ccc3n2)CC1 (stereo not given) | inconclusive [activator, partial curve] |
| O=C(NCCc1ccccc1)c1ccccc1Cl | active: 0.447 µM |
| O=C(c1cc(-c2ccco2)on1)N1CCOCC1 | inconclusive [activator, partial curve] |
| COc1cccc(NC(=O)c2ccc(NC(C)=O)cc2)c1 | inconclusive [activator, partial curve] |
| O=C(/C=C/c1ccc(Cl)cc1Cl)NCc1ccco1 | inconclusive [activator, partial curve] |
